Test results as given in publication PMC4336329 (PLoS ONE, 2015).
Hit rate of the full screen: of about 310,000 compounds, about 14,000 (4.5%) showed an effect of 50% or more. Effects have a minus sign here. This is one part of the list.

What follows are compounds tested against human ether-à-go-go-related gene (hERG) potassium channel (human, UniProt Q12809) (assay: primary screen, population patch clamp on CHO cells stably expressing hERG).
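Note: peak tail current of the secondary pulse compared with the same well before compound.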

Sequence of human ether-à-go-go-related gene (hERG) potassium channel (Q12809 whole entry, looked up): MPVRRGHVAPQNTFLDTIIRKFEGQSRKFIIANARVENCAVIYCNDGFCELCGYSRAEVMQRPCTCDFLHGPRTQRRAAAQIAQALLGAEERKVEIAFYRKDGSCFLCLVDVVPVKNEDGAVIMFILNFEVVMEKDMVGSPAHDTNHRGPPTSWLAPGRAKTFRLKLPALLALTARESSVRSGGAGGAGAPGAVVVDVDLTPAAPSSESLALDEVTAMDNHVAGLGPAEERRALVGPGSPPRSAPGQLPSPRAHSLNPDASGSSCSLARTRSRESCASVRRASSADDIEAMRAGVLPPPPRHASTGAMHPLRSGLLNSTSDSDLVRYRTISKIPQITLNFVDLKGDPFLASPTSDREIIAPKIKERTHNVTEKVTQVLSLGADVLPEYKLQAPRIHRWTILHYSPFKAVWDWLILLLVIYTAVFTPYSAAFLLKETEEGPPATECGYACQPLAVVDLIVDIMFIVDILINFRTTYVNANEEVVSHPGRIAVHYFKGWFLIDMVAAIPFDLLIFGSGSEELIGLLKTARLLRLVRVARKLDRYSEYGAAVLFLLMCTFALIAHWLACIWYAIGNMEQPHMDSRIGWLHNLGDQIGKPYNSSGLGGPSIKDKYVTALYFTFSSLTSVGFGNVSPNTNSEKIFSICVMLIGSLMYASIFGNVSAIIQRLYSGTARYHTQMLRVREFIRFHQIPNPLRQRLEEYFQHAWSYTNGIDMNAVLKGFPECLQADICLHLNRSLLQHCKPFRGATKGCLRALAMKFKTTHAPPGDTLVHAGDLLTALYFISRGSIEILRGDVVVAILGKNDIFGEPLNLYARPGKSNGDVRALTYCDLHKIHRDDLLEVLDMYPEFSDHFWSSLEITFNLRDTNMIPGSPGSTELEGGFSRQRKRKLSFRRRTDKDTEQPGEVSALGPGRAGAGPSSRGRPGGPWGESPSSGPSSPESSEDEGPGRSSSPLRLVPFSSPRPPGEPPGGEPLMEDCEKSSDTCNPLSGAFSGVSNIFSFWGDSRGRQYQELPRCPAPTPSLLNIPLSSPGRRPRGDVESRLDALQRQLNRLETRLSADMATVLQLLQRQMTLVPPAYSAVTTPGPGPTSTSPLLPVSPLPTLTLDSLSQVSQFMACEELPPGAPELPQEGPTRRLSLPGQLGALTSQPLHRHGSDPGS

Structure (SMILES) | hERG current change (%, negative = inhibition) at 10uM
COc1ccc(-n2c(-c3ccco3)nc3ccccc3c2=O)cc1 | 1.5%
O=C(C1CCN(c2ncnc3c2sc2cccc(F)c23)CC1)N1CCOCC1 | -27.8%
O=C(COC(=O)C1CC1)NC(=O)c1ccccc1 | -10.4%
CCOC(=O)c1cc(C(=O)OCC)c(=O)[nH]c1N1CCCC1 | 4.19%
CC(C)n1c(Nc2ccccc2)nc2ccccc21 | -1.84%
CC1=CC(C)(C)N(C(=O)c2ccccc2)c2ccccc21 | -8.02%
Oc1ccc(/C=N/Nc2ccnc3cc(Cl)ccc23)c(O)c1O | 14.2%
O=C(Nc1ccccc1Oc1ccccc1)c1ccccc1F | -4.12%
Cc1ccc2nc(NC(=O)C3CC(=O)N(Cc4ccco4)C3)sc2c1 (stereo not drawn) | 16.1%
COc1cc2c(cc1NC(=O)CSc1nnnn1-c1ccccc1)oc1ccccc12 | 3.22%
O=C(N/N=C/c1cccc(O)c1)c1cc(-c2ccccc2)nc2ccccc12 | 11%
COc1ccc(OC)c(S(=O)(=O)N2CCC(c3nc4ccccc4[nH]3)CC2)c1 | -55.7%
Cc1ccc(NC(=O)C(C)OC(=O)/C=C/c2ccccc2)cc1 (stereo not drawn) | 23%
COc1ccc(N2CCN(C(=O)CN(Cc3ccccc3)S(C)(=O)=O)CC2)cc1 | -17.4%
O=C(O)CCC(=O)Nc1nc2ccc([N+](=O)[O-])cc2s1 | 12%
O=C(NNC(=O)c1ccncc1)c1ccncc1 | 21.9%
COc1ccc(NC(=O)NCCN2CCc3ccccc3C2)cc1 | -34.6%
Cn1c(=O)oc2cc(S(=O)(=O)NC(Cc3ccccc3)C(=O)N3CCCCC3)ccc21 (stereo not drawn) | 16.8%
CCCCOCC(O)CN1CCN(C(C)=O)CC1.O=C(O)C(=O)O (stereo not drawn) | -2.05%

Structure (SMILES) | hERG current change (%, negative = inhibition) at 10uM
CC1CCCN(C(=O)CCNS(=O)(=O)c2ccc3c(c2)c(=O)n(C)c(=O)n3C)C1 (stereo not drawn) | -6.89%
COc1ccccc1N1CCN(C2CCCN(C(=O)c3ccsc3)C2)CC1 (stereo not drawn) | -47.1%
O=C(/C=C/c1cc([N+](=O)[O-])ccc1OC(F)F)Nc1cccc2ccccc12 | 7.25%
Cc1c(C(=O)NCc2ccccc2)cnn1-c1ccccc1 | -2.6%
CCOc1ccc(N2C(=O)CC(NCC3CCCO3)C2=O)cc1 (stereo not drawn) | 2.22%
COc1cc(C(C)=O)ccc1OCC(=O)OCCCOC(=O)COc1ccc(C(C)=O)cc1OC | 17.7%
COc1ccccc1OCC(=O)Nc1nnc(C2CCCC2)s1 | 8.21%
CC(=O)Nc1ccc(S(=O)(=O)N2CCN(C(=O)N3CCOCC3)CC2)cc1 | 8.32%
CCOC(=O)c1ccccc1NC(=O)CSc1ccc(-c2cccnc2)nn1 | -33.5%
Cc1ccc(CN2CCNC(=O)C2CC(=O)NCc2csc(C(C)C)n2)cc1 (stereo not drawn) | -8.31%
CCCCN(C(=O)CSCc1ccc(C)cc1)c1c(N)n(CCC)c(=O)[nH]c1=O | -6.45%
CC(C)c1ccccc1NC(=O)COC(=O)c1cc([N+](=O)[O-])ccc1N1CCOCC1 | -27.2%
COc1ccc2cc(C(=O)N3CCCC(Nc4ccc(F)cc4)C3)n(C)c2c1 (stereo not drawn) | -6.47%
O=C1NC(=O)/C(=C/c2ccc(OS(=O)(=O)c3ccc(F)cc3F)cc2)N1 | 10%
CN1CCC(N(C)C(=O)c2cc(=O)c3ccccc3o2)CC1 | 11.5%
COc1cc(-c2nnc(CSc3nnc4nc(C)cc(C)n34)o2)cc(OC)c1OC | 6.67%
CCOC(=O)CNC(=O)CSc1nc2nc(C)c(Br)cc2[nH]1 | 5.05%
CC(c1ccon1)N(C)C(=O)c1ccc(OC2CCN(C(=O)C3CC3)CC2)cc1 (stereo not drawn) | -0.799%
CCOc1ccccc1N1CCN(C(=O)c2c(C)noc2C)CC1 | 1.78%

Structure (SMILES) | hERG current change (%, negative = inhibition) at 10uM
CC(=O)Nc1ccc(Nc2ncnc3c2cnn3-c2cccc(C)c2)cc1 | 10%
CN(C)c1c(N)[nH]c2c(c1=O)c(=O)n(C)c(=O)n2C | -7.83%
O=C1NC(c2ccccc2)=NC1(Nc1ccccn1)C(F)(F)F (stereo not drawn) | -11%
Cc1ccc(OCC(=O)NNc2c3ccccc3nc3ccccc23)cc1 | 7.76%
O=C(CCS(=O)(=O)c1ccc(Br)cc1)NCc1cccs1 | -11.5%
COC(=O)C1=C(C(=O)OC)[C@@H]2N(C)c3ccc(OC)cc3[C@@]23C[C@@H](C(=O)OC)N=C3N1 | -22.9%
CC(=O)C1=C(C)NC(SCC(N)=O)=C(C#N)C1c1cccs1 (stereo not drawn) | -2.53%
CCCCN(C(=O)c1ccco1)c1c(N)n(CCC)c(=O)[nH]c1=O | -4.19%
O=c1[nH]c(=S)n(-c2ccccc2)c(O)c1C=NCc1ccccn1 | -1.82%
O=C1CC(CC(=O)N/N=C/c2ccccc2[N+](=O)[O-])=NN1 | 21.6%
Cc1ccc2c(c1)C(=O)CC(c1ccc3c(c1)OCCO3)O2 (stereo not drawn) | -3.68%
CS(=O)(=O)N(CC(=O)N1CCN(C(c2ccccc2)c2ccccc2)CC1)C1CCCCC1 | -5.65%
O=c1c2cn[nH]c2[nH]c(=S)n1-c1cccc(Cl)c1 | 24.4%
COc1ccc(C2SCC(C(=O)O)N2C(C)=O)cc1 (stereo not drawn) | 18.7%
Cn1c(=O)n(C)c2cc(NS(C)(=O)=O)ccc21 | 1.86%
O=C1CC(c2ccc3c(c2)OCO3)c2cc3c(cc2N1)OCCO3 (stereo not drawn) | 13.5%
Cc1cc(C)nc(NC(=O)CSc2nn(-c3ccccc3)c(=S)s2)n1 | -7.19%
COc1ccc(/C=N/N(C(C)=O)c2nc(-c3ccc(C)cc3)cs2)cc1 | -9.83%
O=C(CN1CCN(CN2C(=O)NC3(CCCCCC3)C2=O)CC1)Nc1ccc(F)cc1 | -12.8%
